Measured values reported in the supplement of paper PMC3334620.
Whole data set: some 33,000 sequences, median “E-score (-0.5 to 0.5)” near -0.032, cut for the highest 2% near 0.36. This is one part of the list.

Target: T1, Sko1 (UniProt Q02100)
T1 sequence: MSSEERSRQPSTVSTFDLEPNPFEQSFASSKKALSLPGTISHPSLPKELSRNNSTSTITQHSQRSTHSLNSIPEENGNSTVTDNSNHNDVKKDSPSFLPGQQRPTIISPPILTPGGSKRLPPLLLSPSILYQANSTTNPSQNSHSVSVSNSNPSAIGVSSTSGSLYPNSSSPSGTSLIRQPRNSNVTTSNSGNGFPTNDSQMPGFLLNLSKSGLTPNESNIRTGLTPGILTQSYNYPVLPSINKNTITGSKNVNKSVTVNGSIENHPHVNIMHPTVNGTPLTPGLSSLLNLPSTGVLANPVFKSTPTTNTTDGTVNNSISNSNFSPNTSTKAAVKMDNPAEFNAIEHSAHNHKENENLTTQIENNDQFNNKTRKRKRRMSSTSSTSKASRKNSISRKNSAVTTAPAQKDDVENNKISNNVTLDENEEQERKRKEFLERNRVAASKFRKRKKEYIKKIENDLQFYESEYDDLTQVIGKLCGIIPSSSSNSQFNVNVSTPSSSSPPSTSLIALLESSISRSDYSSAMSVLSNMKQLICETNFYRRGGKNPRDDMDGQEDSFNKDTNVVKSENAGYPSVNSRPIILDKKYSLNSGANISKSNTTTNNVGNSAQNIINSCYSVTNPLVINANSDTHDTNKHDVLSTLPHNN
Assay: PBM E-score (8-mer binding enrichment) (E-score (-0.5 to 0.5)); higher = stronger / more preferred TF binding; most listed sequences are background and not binding sites
Details: protein concentration: 200 nM; construct: GST-full length
Method in brief: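 Using PURExpress in vitro transcription/translation, GST-tagged yeast transcription factors were made in full-length or DNA-binding-domain form. These were applied at about 100-200 nM to double-stranded universal all-10-mer Agilent arrays, and bound protein was detected with fluorescent anti-GST. Scans were normalised with masliner before the Universal PBM Analysis Suite assigned E-scores to ungapped eight-base words pooled with their reverse complements.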

Sequence	PBM E-score
AAGTTTCC	0.0349
GAAAAGTA	0.0669
AGAGCTAG	-0.0335
GTAGTCAC	0.0182
CTAGAGGA	-0.188
AAGGGGTG	-0.304
ACTTCGAT	0.0534
CGCTACTC	-0.0678
AGTGTAGC	-0.0914
GCCTGCAA	-0.179
GATCTGCC	-0.116
AAAGAATC	-0.193
ACAGCAAT	0.0932
GAGCAGCA	0.0244
CCGTTCCC	-0.329
ATACGATC	0.109
ACAAGTGG	-0.0583
CGATGAAC	-0.161
AGGCGGTC	-0.34
CCTCGCGA	-0.272
ACATGCAA	0.0849
ATCCGTAC	0.151
CTTAAACC	-0.107
GACAATCA	0.00255
CGAGTAAG	-0.143

Sequence	PBM E-score
CACGTGGC	0.318
CCTGTTTA	-0.0982
GGACCACC	-0.183
GGCCCACA	-0.117
AGCTAGTA	0.0624
CTTCAAAC	-0.0693
GCGATGAA	-0.0296
AGCTAGCT	-0.00529
AGTATTTA	0.164
ATGGTAGA	-0.0774
CTGAAACA	0.136
AACACGGT	0.0994
GAGGAGGC	-0.241
CGATGTAG	-0.0725
CTTTCTTC	-0.0783
AACAAATT	0.222
GGAACATA	0.0323
CTAACGGA	0.007
AGAAATAC	0.181
AGGATACG	0.239
CGAATGAG	0.171
ATTTTACG	0.383
CCTCTAAC	-0.147
GGCTAAAA	-0.194
ACTGACAT	0.157

Sequence	PBM E-score
ATAGATCC	-0.125
AGACGAGA	-0.0307
TAATAACA	0.166
GCCATGTA	0.112
ACGATCCA	-0.104
AGACAAAG	-0.0355
CAGTAATC	0.0473
AACTTTAT	0.102
CCACTCCG	-0.189
CTTAGTCA	-0.0288
AAGCTACG	0.251
GTATTGGA	0.153
AAGGTTGG	-0.0488
GATTGAGA	0.163
GCATCGCA	-0.35
AATTAGAT	0.24
GCCGAAAC	-0.201
AACGATAC	0.0866
GATAGTCC	-0.141
GCAATGCC	-0.173
CCACGTAA	0.456
ATATTCAA	0.114
GGACAAGA	-0.223
ACCGGATC	-0.142
GTCCCCCA	-0.225

Sequence	PBM E-score
CCTAAGAA	0.105
TAACCCTA	0.0569
GCGTAGCA	0.225
ACCGCCGT	-0.264
TAGTTTAA	0.106
AACTCATT	-0.0146
CATGCATG	0.0909
AGTGGCCA	-0.0914
AGTACCGG	-0.122
AGAATACC	0.0988
CTAAGTAG	-0.00551
CGAGACTC	-0.155
GAGGTCGC	-0.214
GACCGGGC	-0.21
AATTACCA	0.151
GAGACTGA	-0.0471
CTAACCTA	0.0431
GAATCGAC	0.0216
GCCCATAA	-0.17
CGCTTACA	-0.0126
CTGTAGCC	-0.181
GCTCACCA	-0.0871
TGTAGCAA	-0.0122
GGGCAGGA	-0.183
AAGCTTCC	-0.128

Sequence	PBM E-score
ATTATGTC	0.336
GCTCCCCA	-0.157
CTTGGGCA	-0.17
ATCGGCGA	-0.273
AACGATTA	0.169
ATACGTAT	0.487
ATAGATTC	0.0666
ACCCTGCA	0.0472
CAACATGG	0.0728
ATGGCACG	0.114
GGGACGTA	0.319
AAAAGTGT	0.0593
ACATAACG	0.312
CCCCGTGC	-0.11
CCTTTATA	-0.0221
CGCGTACC	0.156
TACGACAA	0.279
GTGCGAAC	-0.119
AGCCTTTA	0.0785
ATCGCGGA	-0.186
CTACAGTC	-0.00457
ACCACTCC	-0.346
AGAAGATG	0.126
ACAGGTAT	0.109
AGATCCGG	-0.284

Sequence	PBM E-score
CCATGTTC	-0.124
AAAAGAAT	0.115
GACGCGAA	0.119
ACGCACGT	0.403
ACGATAGA	0.136
TCTAAAAA	0.00786
ACCTTTTC	-0.159
CTGCAGTA	-0.0765
GTTTGACA	0.133
CCCGCCGC	-0.0661
TGAAAGAA	0.0805
CGGGTAGA	-0.156
AAGGGGAG	-0.295
CATCACCA	0.136
CCTCCACG	0.0433
ATTTGCGA	0.155
ACCTCATG	0.0466
GCCGCAGC	-0.205
GGAGAATA	0.0913
GTTTTAAA	0.098
GCGGGTGA	-0.0158
CAGAAGCG	-0.0267
CGTGCGGC	0.00261
ACCGTAGC	-0.0407
GTAATTAC	0.367

Sequence	PBM E-score
GTGTCCAA	0.142
TAGTTGCA	0.155
GATATTTA	0.124
CGTCAACC	0.344
CAGGGAGG	-0.23
CCACGACA	0.0113
CTGTTATC	0.161
ACGCTGGA	-0.139
GGTGGGCA	-0.156
CCACTACG	0.255
AAACGTCA	0.47
ATTCGGTC	0.0279
GAGACAGA	0.00414
CAACGCGA	-0.0306
ACGGACGC	-0.0612
ACCGCGCA	-0.149
GAACGAGA	0.041
GTTGGCCA	-0.204
TATGTAAA	0.322
ATCATCAG	0.161
CCGGCGCG	-0.218
CCGCTTCG	-0.149
AACAAGCA	-0.0884
CGGTTGGA	-0.258
AGTATCAA	0.173

Sequence	PBM E-score
ATTGCAGG	0.086
ATTGAAAT	0.267
AGATGGTG	-0.179
TTTACAAA	0.22
TACACATA	0.156
AGGTAGCG	-0.119
AGGGCTGA	-0.122
ACTGAACA	0.0693
GAGGATAA	-0.0417
AGCAAGAG	-0.0197
GCATATGC	0.0115
ACGCCGGC	-0.082
AAGTAAAT	0.139
CTGCTTTC	-0.173
ATGGACAC	0.0118
AGGGCCGA	-0.206
CGGTAGCA	-0.115
ACGCGGCA	-0.105
CAGGATGC	-0.244
GAAAAGAA	-0.00717
AAGCATGC	0.121
AGCTGTGC	-0.119
GGCACACC	-0.123
CGACTAAG	-0.172
ATTTTCCC	0.0309

Sequence	PBM E-score
GTATTTAA	0.246
TCTACGAA	0.0722
TCTGCAGA	-0.124
AGATCTAG	-0.0126
ATTTGATA	0.244
AGCATACT	-0.0273
CCATACTA	0.0804
CTCGTACC	0.123
ACGTAAGG	0.464
GCCTCGAC	-0.3
AGTGTCGC	0.0648
AGTGGGAG	-0.265
ATACACCA	0.105
ATAGATAT	0.249
ACAACCTG	-0.0223
CTACCGAC	-0.143
GCCCAGCC	-0.0856
AAAACGGT	-0.206
ATTTTGAC	0.223
ACTGATCC	-0.0676
AACCACCC	-0.183
GACTATAA	0.0531
CAATTACG	0.455
AATCACAG	-0.0226
CTGAAACC	-0.0578

Sequence	PBM E-score
GCAAAACC	-0.0829
AAACAAAT	0.161
CCCTAGAA	0.0645
CAGAACGG	-0.147
ACACGTAT	0.463
CGTCCCGA	-0.123
AAGTACCT	-0.0422
CGAAATTC	0.0424
ACGATCAC	0.0848
ATGCTGGC	-0.123
CGGAAATA	0.17
AACTGCTT	-0.0503
AATAGCCC	-0.114
ATTGGTTA	0.0772
ACGCCGCG	-0.057
TACGCGGA	0.211
AGAATGTA	0.0954
CCCGAACA	-0.247
GGTTGCAA	0.0174
AGGGCGAT	-0.0344
CCATATCC	-0.0784
GCCTTCGC	-0.222
CGTGCGAA	0.218
CAAGGCAA	-0.136
GGTACGTA	0.454

Sequence	PBM E-score
ACCCAAAA	0.0721
ACCCGGCG	-0.201
TATATACA	0.226
AGCAGACT	-0.00183
CTATTTCC	0.0516
CAGACTGA	-0.0686
ACATACGT	0.459
CACACCCC	-0.208
AGGGGGTG	-0.333
ATAGGTCA	0.2
GAATTTAC	0.225
ACAATGAC	0.276
CGCCTGAA	0.00958
ACAGGCTG	-0.245
GACAAGGC	-0.287
ACGGGAAA	-0.0631
AATAACTG	0.0824
GCTCGAGC	0.0956
AAGGTAAA	0.00922
ACCATTAT	-0.145
CGCGTCGC	-0.0535
TGACATAA	0.424
AACAATCT	0.0494
TATTAACA	0.268
AGAAGTGG	-0.19

Sequence	PBM E-score
AATGCGAG	0.128
AGTCGGTG	-0.312
GCACCTAA	0.0769
CACGATGG	-0.0649
ACGCGAAT	0.229
GGACTAGA	-0.158
AGATGACC	-0.0804
ATGAAGGC	-0.0634
CTTAACCA	0.0261
ACATGTAT	0.273
CGCAAGCA	0.0501
CGCCCTCA	-0.128
TAAACGAA	0.116
ACCGCAGG	-0.278
AACTTCTT	0.0945
AACATAGA	-0.0693
CATGTGAC	0.284
GTGACAAA	0.167
GGACCCGA	-0.329
TCGTGAAA	0.0383
TAAATACA	0.181
AACTCTCG	-0.0804
GGACTTTA	-0.102
TGTGCTAA	0.106
AACCTTAG	-0.0862

Sequence	PBM E-score
CAGTTATG	-0.0352
AGGCGTCG	-0.142
CCCCGCCA	-0.0909
AGTATGCG	0.0297
GCACCCGA	-0.249
AACGTGCT	0.0929
AAATAATA	0.268
AGACTTAT	-0.0312
CGGCAGAC	-0.305
ACCAACGG	-0.0964
AGCGGTTG	-0.0753
AGCAGGGG	-0.307
ATGGTGCC	-0.206
CTGTGCTC	0.0303
GAACTCAA	-0.137
GAAAGGGA	-0.133
GCACTAAC	-0.147
AGCGGCTG	-0.175
AATTCAGC	-0.0401
ATCCTGGC	-0.215
AATTTTGT	0.194
AGCACGAC	-0.263
CACAGTCC	-0.139
CCACTGTA	0.0703
AATCGGAC	-0.188

Sequence	PBM E-score
CAGCGGCA	-0.155
AAGTCCAC	-0.188
GCGTATCA	0.131
ACTGAGCG	-0.15
GGCGTGAA	0.00549
ACCAGTGA	0.0723
CTAGCCTC	-0.152
GAATTGAA	0.168
CGACTTGA	0.0052
CACACTAG	-0.0798
ACGACGTG	0.365
TGACAGCA	0.116
GGCTACAA	-0.0783
ACGAATGA	0.321
GCCTACCC	-0.229
ATCGGAAA	0.0215
GTTCAAGA	0.0696
ATGGAGCA	0.0844
GCCCTACC	-0.113
